Measured values: the supplement of paper PMC8728848
This is one part of the list.

Legend:
Test in all cases: glycan array binding signal (z-score within array); higher = stronger binding
Settings in all cases: glycan notation: IUPAC condensed, linker removed
[1] = biological target: Neu5Ac(a2-3)Gal(b1-3)[Fuc(a1-4)]GlcNAc(b1-3)Gal(b1-3)[Fuc(a1-4)]GlcNAc
Outline: (§1)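 The Consortium for Functional Glycomics database supplied 3228 glycan arrays, of which those lacking an available protein sequence were dropped. The binding signal, a within-array Z-score, was averaged across arrays of the same protein sequence and across linkers. Negative scores can be read as non-binding.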

[2] = biological target: Neu5Ac(a2-3)Gal(b1-3)[Fuc(a1-4)]GlcNAc(b1-3)Gal(b1-4)[Fuc(a1-3)]GlcNAc
Outline: as §1

[3] = biological target: Neu5Ac(a2-3)Gal(b1-3)[GlcNAc(b1-6)]GalNAc
Outline: as §1

[4] = biological target: Neu5Ac(a2-3)Gal(b1-3)[Neu5Ac(a2-3)Gal(b1-4)]GlcNAc
Outline: as §1

[5] = biological target: Neu5Ac(a2-3)Gal(b1-3)[Neu5Ac(a2-6)]GalNAc
Outline: as §1

[6] = biological target: Neu5Ac(a2-3)Gal(b1-3)[Neu5Ac(a2-6)]GlcNAc(b1-3)[Fuc(a1-3)[Gal(b1-4)]GlcNAc(b1-6)]Gal(b1-4)Glc
Outline: as §1

[7] = biological target: Neu5Ac(a2-3)Gal(b1-3)]Neu5Ac(a2-3)Gal(b1-4)]GlcNAc
Outline: as §1

[8] = biological target: Neu5Ac(a2-3)Gal(b1-4)Glc
Outline: as §1

[9] = biological target: Neu5Ac(a2-3)Gal(b1-4)GlcNAc
Outline: as §1

[10] = biological target: Neu5Ac(a2-3)Gal(b1-4)GlcNAc(b1-2)Man
Outline: as §1

[11] = biological target: Neu5Ac(a2-3)Gal(b1-4)GlcNAc(b1-2)Man(a1-3)[GlcNAc(b1-2)Man(b1-4)GlcNAc(b1-2)Man(a1-6)]Man(b1-4)GlcNAc(b1-4)GlcNAc
Outline: as §1

[12] = biological target: Neu5Ac(a2-3)Gal(b1-4)GlcNAc(b1-2)Man(a1-3)[GlcNAc(b1-4)][Neu5Ac(a2-3)Gal(b1-4)GlcNAc(b1-2)Man(a1-6)]Man(b1-4)GlcNAc(b1-4)GlcNAc
Outline: as §1

[13] = biological target: Neu5Ac(a2-3)Gal(b1-4)GlcNAc(b1-2)Man(a1-3)[Neu5Ac(a2-3)Gal(b1-4)GlcNAc(b1-2)Man(a1-6)]Man(b1-4)GlcNAc(b1-4)GlcNAc
Outline: as §1

[14] = biological target: Neu5Ac(a2-3)Gal(b1-4)GlcNAc(b1-2)Man(a1-3)[Neu5Ac(a2-3)Gal(b1-4)GlcNAc(b1-2)Man(a1-6)]Man(b1-4)GlcNAc(b1-4)[Fuc(a1-6)]GlcNAc
Outline: as §1

[15] = biological target: Neu5Ac(a2-3)Gal(b1-4)GlcNAc(b1-2)Man(a1-3)[Neu5Ac(a2-6)Gal(b1-4)GlcNAc(b1-2)Man(a1-6)]Man(b1-4)GlcNAc(b1-4)GlcNAc
Outline: as §1

[16] = biological target: Neu5Ac(a2-3)Gal(b1-4)GlcNAc(b1-2)[Neu5Ac(a2-3)Gal(b1-4)GlcNAc(b1-4)]Man(a1-3)[GlcNAc(b1-4)][Neu5Ac(a2-3)Gal(b1-4)GlcNAc(b1-2)[Neu5Ac(a2-3)Gal(b1-4)GlcNAc(b1-6)]Man(a1-6)]Man(b1-4)GlcNAc(b1-4)GlcNAc
Outline: as §1

[17] = biological target: Neu5Ac(a2-3)Gal(b1-4)GlcNAc(b1-2)[Neu5Ac(a2-3)Gal(b1-4)GlcNAc(b1-4)]Man(a1-3)[GlcNAc(b1-4)][Neu5Ac(a2-3)Gal(b1-4)GlcNAc(b1-4)Man(a1-6)]Man(b1-4)GlcNAc(b1-4)GlcNAc
Outline: as §1

[18] = biological target: Neu5Ac(a2-3)Gal(b1-4)GlcNAc(b1-2)[Neu5Ac(a2-3)Gal(b1-4)GlcNAc(b1-6)]Man(a1-6)[Neu5Ac(a2-3)Gal(b1-4)GlcNAc(b1-2)Man(a1-3)][GlcNAc(b1-4)]Man(b1-4)GlcNAc(b1-4)GlcNAc
Outline: as §1

[19] = biological target: Neu5Ac(a2-3)Gal(b1-4)GlcNAc(b1-3)Gal
Outline: as §1

[20] = biological target: Neu5Ac(a2-3)Gal(b1-4)GlcNAc(b1-3)Gal(b1-3)GlcNAc
Outline: as §1

[21] = biological target: Neu5Ac(a2-3)Gal(b1-4)GlcNAc(b1-3)Gal(b1-4)GlcNAc
Outline: as §1

[22] = biological target: Neu5Ac(a2-3)Gal(b1-4)GlcNAc(b1-3)Gal(b1-4)GlcNAc(b1-2)Man(a1-3)[Neu5Ac(a2-3)Gal(b1-4)GlcNAc(b1-3)Gal(b1-4)GlcNAc(b1-2)Man(a1-6)]Man(b1-4)GlcNAc(b1-4)GlcNAc
Outline: as §1

[23] = biological target: Neu5Ac(a2-3)Gal(b1-4)GlcNAc(b1-3)Gal(b1-4)GlcNAc(b1-3)Gal(b1-4)GlcNAc
Outline: as §1

[24] = biological target: Neu5Ac(a2-3)Gal(b1-4)GlcNAc(b1-3)Gal(b1-4)GlcNAc(b1-3)Gal(b1-4)GlcNAc(b1-2)Man(a1-3)[Neu5Ac(a2-3)Gal(b1-4)GlcNAc(b1-3)Gal(b1-4)GlcNAc(b1-3)Gal(b1-4)GlcNAc(b1-2)Man(a1-6)]GalNAc
Outline: as §1

[25] = biological target: Neu5Ac(a2-3)Gal(b1-4)GlcNAc(b1-3)Gal(b1-4)GlcNAc(b1-3)GalNAc
Outline: as §1

[26] = biological target: Neu5Ac(a2-3)Gal(b1-4)GlcNAc(b1-3)Gal(b1-4)GlcNAc(b1-3)[Neu5Ac(a2-3)Gal(b1-4)GlcNAc(b1-3)Gal(b1-4)GlcNAc(b1-6)]GalNAc
Outline: as §1

[27] = biological target: Neu5Ac(a2-3)Gal(b1-4)GlcNAc(b1-3)Gal(b1-4)GlcNAc(b1-6)[Gal(b1-3)]GalNAc
Outline: as §1

[28] = biological target: Neu5Ac(a2-3)Gal(b1-4)GlcNAc(b1-3)Gal(b1-4)[Fuc(a1-3)]GlcNAc
Outline: as §1

[29] = biological target: Neu5Ac(a2-3)Gal(b1-4)GlcNAc(b1-3)GalNAc
Outline: as §1

[30] = biological target: Neu5Ac(a2-3)Gal(b1-4)GlcNAc(b1-3)[Neu5Ac(a2-3)Gal(b1-4)GlcNAc(b1-6)]GalNAc
Outline: as §1

[31] = biological target: Neu5Ac(a2-3)Gal(b1-4)GlcNAc(b1-6)GalNAc
Outline: as §1

[32] = biological target: Neu5Ac(a2-3)Gal(b1-4)GlcNAc(b1-6)[Gal(b1-3)]GalNAc
Outline: as §1

[33] = biological target: Neu5Ac(a2-3)Gal(b1-4)GlcNAc(b1-6)[Neu5Ac(a2-3)Gal(b1-3)]GalNAc
Outline: as §1

[34] = biological target: Neu5Ac(a2-3)Gal(b1-4)GlcNAc6S
Outline: as §1

[35] = biological target: Neu5Ac(a2-3)Gal(b1-4)[Fuc(a1-3)]GlcNAc
Outline: as §1

[36] = biological target: Neu5Ac(a2-3)Gal(b1-4)[Fuc(a1-3)]GlcNAc(b1-2)Man
Outline: as §1

[37] = biological target: Neu5Ac(a2-3)Gal(b1-4)[Fuc(a1-3)]GlcNAc(b1-3)Gal
Outline: as §1

[38] = biological target: Neu5Ac(a2-3)Gal(b1-4)[Fuc(a1-3)]GlcNAc(b1-3)Gal(b1-4)GlcNAc
Outline: as §1

B1: MGL6A (Homo sapiens) (protein)
chain: MTRTYENFQYLENKVKVQGFKNGPLPLQSLLQRLCSGPCHLLLSLGLGLLLLVIICVVGFQNSKFQRDLVTLRTDFSNFTSNTVAEIQALTSQGSSLEETIASLKAEVEGFKQERQAVHSEMLLRVQQLVQDLKKLTCQVATLNNNGEEASTEGTCCPVNWVEHQDSCYWFSHSGMSWAEAEKYCQLKNAHLVVINSREEQNFVQKYLGSAYTWMGLSDPEGAWKWVDGTDYATGFQNWKPGQPDDWQGHGLGGGEDCAHFHPDGRWNDDVCQRPYHWVCEAGLGQTSQESH
- glycan array binding signal (z-score) [1]: -0.204
- glycan array binding signal (z-score) [2]: -0.37
- glycan array binding signal (z-score) [3]: -1.57
- glycan array binding signal (z-score) [4]: -0.404
- glycan array binding signal (z-score) [5]: -0.28
- glycan array binding signal (z-score) [6]: -0.237
- glycan array binding signal (z-score) [7]: -0.152
- glycan array binding signal (z-score) [8]: -0.45
- glycan array binding signal (z-score) [9]: -0.278
- glycan array binding signal (z-score) [10]: -0.196
- glycan array binding signal (z-score) [11]: -0.467
- glycan array binding signal (z-score) [12]: -0.26
- glycan array binding signal (z-score) [13]: -0.206
- glycan array binding signal (z-score) [14]: -0.229
- glycan array binding signal (z-score) [15]: -0.248
- glycan array binding signal (z-score) [16]: -0.278
- glycan array binding signal (z-score) [17]: -0.268
- glycan array binding signal (z-score) [18]: -0.272
- glycan array binding signal (z-score) [19]: -0.71
- glycan array binding signal (z-score) [20]: -0.277
- glycan array binding signal (z-score) [21]: -0.328
- glycan array binding signal (z-score) [22]: -1.08
- glycan array binding signal (z-score) [23]: -0.343
- glycan array binding signal (z-score) [24]: -0.191
- glycan array binding signal (z-score) [25]: -0.254
- glycan array binding signal (z-score) [26]: -0.287
- glycan array binding signal (z-score) [27]: -0.286
- glycan array binding signal (z-score) [28]: -0.31
- glycan array binding signal (z-score) [29]: -0.263
- glycan array binding signal (z-score) [30]: -0.447
- glycan array binding signal (z-score) [31]: 3.89
- glycan array binding signal (z-score) [32]: -0.214
- glycan array binding signal (z-score) [33]: -0.364
- glycan array binding signal (z-score) [34]: -0.299
- glycan array binding signal (z-score) [35]: -0.311
- glycan array binding signal (z-score) [36]: -0.265
- glycan array binding signal (z-score) [37]: -0.287
- glycan array binding signal (z-score) [38]: -0.233
